The chains are these.
T1: RBFOX1 RRM RbFoxmut (Fox-RRM*) (Homo sapiens, UniProt Q9NWB1 109-208, R118D;E147R;N151S;E152T)
T1 sequence: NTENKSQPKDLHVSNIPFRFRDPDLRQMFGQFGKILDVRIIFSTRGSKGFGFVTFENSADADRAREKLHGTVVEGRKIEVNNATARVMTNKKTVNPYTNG

B1: UGGCCAA (DNA:RNA)
RNA: GGGAGACCGGAAUUCAGAUUGUCCUGGCCAAUUAAAUCCCGUCGUAGCCACCA
DNA 1: CAATCTGAATTCCGGTCTCCC
DNA 2: TGGTGGCTACGACGGGATT
B2: GAUAAUC (DNA:RNA)
RNA: GGGAGACCGGAAUUCAGAUUGUCCGAUAAUCUUAAAUCCCGUCGUAGCCACCA
DNA 1: CAATCTGAATTCCGGTCTCCC
DNA 2: TGGTGGCTACGACGGGATT
B3: ACCCAUG (DNA:RNA)
RNA: B2 RNA with G25A, A26C, U27C, A28C, C31G
DNA 1: CAATCTGAATTCCGGTCTCCC
DNA 2: TGGTGGCTACGACGGGATT
B4: GACCUCU (DNA:RNA)
RNA: B2 RNA with U27C, A28C, A29U, U30C, C31U
DNA 1: CAATCTGAATTCCGGTCTCCC
DNA 2: TGGTGGCTACGACGGGATT
B5: GACAGGU (DNA:RNA)
RNA: B2 RNA with U27C, A29G, U30G, C31U
DNA 1: CAATCTGAATTCCGGTCTCCC
DNA 2: TGGTGGCTACGACGGGATT
B6: CUAGCCG (DNA:RNA)
RNA: B1 RNA with U25C, G26U, G27A, C28G, A30C, A31G
DNA 1: CAATCTGAATTCCGGTCTCCC
DNA 2: TGGTGGCTACGACGGGATT
B7: GAGCGUG (DNA:RNA)
RNA: B2 RNA with U27G, A28C, A29G, C31G
DNA 1: CAATCTGAATTCCGGTCTCCC
DNA 2: TGGTGGCTACGACGGGATT
B8: AAGCAUU (DNA:RNA)
RNA: B2 RNA with G25A, U27G, A28C, C31U
DNA 1: CAATCTGAATTCCGGTCTCCC
DNA 2: TGGTGGCTACGACGGGATT
B9: AUUGCUC (DNA:RNA)
RNA: B2 RNA with G25A, A26U, A28G, A29C
DNA 1: CAATCTGAATTCCGGTCTCCC
DNA 2: TGGTGGCTACGACGGGATT
B10: GGAUCAA (DNA:RNA)
RNA: B1 RNA with U25G, G27A, C28U
DNA 1: CAATCTGAATTCCGGTCTCCC
DNA 2: TGGTGGCTACGACGGGATT
B11: UCUGGUG (DNA:RNA)
RNA: B2 RNA with G25U, A26C, A28G, A29G, C31G
DNA 1: CAATCTGAATTCCGGTCTCCC
DNA 2: TGGTGGCTACGACGGGATT
B12: CCGGAAG (DNA:RNA)
RNA: B1 RNA with U25C, G26C, C28G, C29A, A31G
DNA 1: CAATCTGAATTCCGGTCTCCC
DNA 2: TGGTGGCTACGACGGGATT
B13: AACAAAU (DNA:RNA)
RNA: B2 RNA with G25A, U27C, U30A, C31U
DNA 1: CAATCTGAATTCCGGTCTCCC
DNA 2: TGGTGGCTACGACGGGATT
B14: AAAAGAU (DNA:RNA)
RNA: B2 RNA with G25A, U27A, A29G, U30A, C31U
DNA 1: CAATCTGAATTCCGGTCTCCC
DNA 2: TGGTGGCTACGACGGGATT
B15: UAGGUAU (DNA:RNA)
RNA: B1 RNA with G26A, C28G, C29U, A31U
DNA 1: CAATCTGAATTCCGGTCTCCC
DNA 2: TGGTGGCTACGACGGGATT
B16: CCUAGCA (DNA:RNA)
RNA: B2 RNA with G25C, A26C, A29G, U30C, C31A
DNA 1: CAATCTGAATTCCGGTCTCCC
DNA 2: TGGTGGCTACGACGGGATT
B17: AUCGAAU (DNA:RNA)
RNA: B2 RNA with G25A, A26U, U27C, A28G, U30A, C31U
DNA 1: CAATCTGAATTCCGGTCTCCC
DNA 2: TGGTGGCTACGACGGGATT
B18: CGGUCUA (DNA:RNA)
RNA: B1 RNA with U25C, C28U, A30U
DNA 1: CAATCTGAATTCCGGTCTCCC
DNA 2: TGGTGGCTACGACGGGATT
B19: AUACAGA (DNA:RNA)
RNA: B1 RNA with U25A, G26U, G27A, C29A, A30G
DNA 1: CAATCTGAATTCCGGTCTCCC
DNA 2: TGGTGGCTACGACGGGATT
B20: AGGCAGC (DNA:RNA)
RNA: B1 RNA with U25A, C29A, A30G, A31C
DNA 1: CAATCTGAATTCCGGTCTCCC
DNA 2: TGGTGGCTACGACGGGATT

Positions count from the first letter of the chain named. The list shows a part of the results.

In the assay the target is T1, RBFOX1 RRM RbFoxmut (Fox-RRM*). In words: EMSA; HiTS-Eq, 1 nM pool, 10 min; buffer printed only for the single-RNA assays: 10 mM Tris pH 7.5, 150 mM NaCl, 3.4 mM EDTA, 0.001% NP-40, 30 C. To be noted: tags: His6 N-terminal (pET28a); label: 5' 32P. An outline of the steps: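 A pool of RNA with 7 randomized nucleotides, 5′-radiolabelled and with DNA-annealed flanks, was equilibrated at 1 nM for 10 min in 50 µL with purified RbFox RRM, wild type or mutant, across increasing protein concentrations. Free RNA was separated by 8% native PAGE, excised, reverse-transcribed, barcoded by PCR and sequenced. Relative association constants were obtained from read-count changes of each RNA species versus the control reaction and normalised to the cognate motif.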
As to B1, the binding signal was 0.0766 KA relative to UGCAUGU.

Consider B2, for which the binding signal was 0.0452 KA relative to UGCAUGU.

For the molecule B3, the binding signal was 0.11 KA relative to UGCAUGU.

Consider B4, for which the binding signal was 0.0728 KA relative to UGCAUGU.

Consider B5, for which the binding signal was 0.0716 KA relative to UGCAUGU.

For B6, the binding signal was 0.106 KA relative to UGCAUGU.

Consider B7, for which the binding signal is 0.129 KA relative to UGCAUGU.

Regarding B8, the binding signal is 0.0894 KA relative to UGCAUGU.

Consider B9, for which the binding signal was 0.0973 KA relative to UGCAUGU.

As to B10, the binding signal was 0.131 KA relative to UGCAUGU.

For B11, the binding signal is 0.133 KA relative to UGCAUGU.

With B12, the binding signal is 0.111 KA relative to UGCAUGU.

For the molecule B13, the binding signal was 0.0524 KA relative to UGCAUGU.

With B14, the binding signal is 0.0737 KA relative to UGCAUGU.

Turning to B15, the binding signal is 0.117 KA relative to UGCAUGU.

In the case of B16, the binding signal was 0.119 KA relative to UGCAUGU.

With B17, the binding signal was 0.16 KA relative to UGCAUGU.

As to B18, the binding signal was 0.0658 KA relative to UGCAUGU.

B19: the binding signal is 0.0573 KA relative to UGCAUGU.

As to B20, the binding signal was 0.0622 KA relative to UGCAUGU.
